Here are results for 88 compounds from article PMC4336329 (PLoS ONE, 2015).

Hit rate of the full screen: of about 310,000 compounds, about 2,200 (0.71%) showed an effect of 50% or more. Effects have a minus sign here. This is one part of the list.

The target of the assay is human ether-à-go-go-related gene (hERG) potassium channel (human, UniProt Q12809). The assay is described as follows: primary screen, population patch clamp on CHO cells stably expressing hERG.
human ether-à-go-go-related gene (hERG) potassium channel, sequence (Q12809 whole entry, looked up): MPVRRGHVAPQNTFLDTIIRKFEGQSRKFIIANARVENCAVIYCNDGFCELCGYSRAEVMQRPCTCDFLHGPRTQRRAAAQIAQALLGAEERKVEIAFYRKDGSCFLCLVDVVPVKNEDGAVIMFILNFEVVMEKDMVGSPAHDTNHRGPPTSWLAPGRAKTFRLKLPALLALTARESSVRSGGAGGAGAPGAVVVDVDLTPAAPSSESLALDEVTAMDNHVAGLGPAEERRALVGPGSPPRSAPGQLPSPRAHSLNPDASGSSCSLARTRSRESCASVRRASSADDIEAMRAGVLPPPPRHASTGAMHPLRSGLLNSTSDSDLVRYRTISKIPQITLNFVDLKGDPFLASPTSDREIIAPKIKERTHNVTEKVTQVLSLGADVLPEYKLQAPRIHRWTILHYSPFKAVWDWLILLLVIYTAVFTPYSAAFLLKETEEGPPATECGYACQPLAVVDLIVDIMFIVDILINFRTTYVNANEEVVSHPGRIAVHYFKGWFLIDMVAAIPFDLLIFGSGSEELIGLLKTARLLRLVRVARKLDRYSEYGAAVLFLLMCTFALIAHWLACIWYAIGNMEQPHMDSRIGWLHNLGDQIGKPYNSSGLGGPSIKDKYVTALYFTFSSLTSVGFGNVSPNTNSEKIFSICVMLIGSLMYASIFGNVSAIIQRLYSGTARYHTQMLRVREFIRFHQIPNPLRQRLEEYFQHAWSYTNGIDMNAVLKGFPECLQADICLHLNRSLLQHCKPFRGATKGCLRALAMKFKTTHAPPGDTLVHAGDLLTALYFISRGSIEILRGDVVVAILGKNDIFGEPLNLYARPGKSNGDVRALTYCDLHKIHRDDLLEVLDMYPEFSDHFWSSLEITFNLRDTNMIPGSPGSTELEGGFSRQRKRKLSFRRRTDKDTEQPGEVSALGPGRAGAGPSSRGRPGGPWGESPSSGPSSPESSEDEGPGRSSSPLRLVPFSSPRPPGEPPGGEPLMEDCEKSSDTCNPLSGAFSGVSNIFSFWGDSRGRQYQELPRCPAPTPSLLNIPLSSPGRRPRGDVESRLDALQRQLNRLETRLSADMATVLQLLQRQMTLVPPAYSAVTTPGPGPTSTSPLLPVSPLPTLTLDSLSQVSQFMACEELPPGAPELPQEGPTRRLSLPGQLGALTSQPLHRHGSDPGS
Turning to `CCN(CC)CCNC(=O)C1(O)c2cc(Br)ccc2NC(=O)N1c1ccc(Cl)cc1` (stereo not shown), the “hERG current change (%, negative = inhibition) at 1uM” value came out at 14.3%.
In the case of `NS(=O)(=O)c1ccc(NC(=O)CCc2ccccc2)cc1`, the “hERG current change (%, negative = inhibition) at 1uM” value is 0.661%.
As for `COc1ccc(S(=O)(=O)Nc2ccc(O)c(Sc3ncn[nH]3)c2)cc1`, the figure is 7.48%; as for `Cn1c(=O)n(C)c2cc(NS(=O)(=O)c3cccs3)ccc21`, 11.6%; as for `Br.CC1(C)N=C(N)NC(Nc2ccc(Br)cc2)=N1`, 7.7%.
In the case of `O=C1CC(=O)N(c2ccccc2)c2ccccc21`, the “hERG current change (%, negative = inhibition) at 1uM” value stood at 12.8%.
As for `CN(C)CCCN(C(=O)c1cc2ccccc2oc1=O)c1nc2c(F)cccc2s1.Cl`, the “hERG current change (%, negative = inhibition) at 1uM” value is -2.2%.
As for `CCCN(Cc1ccccc1)C(=S)Nc1ccc(OC(F)F)cc1`, the “hERG current change (%, negative = inhibition) at 1uM” value is on record as -3.58%.
As for `O=[N+]([O-])c1ccccc1-c1ccc(C(=S)N2CCCC2)o1`, the figure is 11.5%; as for `CCNC(=O)/C(C#N)=C/c1c(N2CC(C)OC(C)C2)nc2ccccn2c1=O` (stereo not shown), 12.7%; as for `Cc1ccc(S(=O)(=O)C(C#N)c2nc3ccccc3nc2N2CCCC2)cc1` (stereo not shown), -7.15%.
As to `COc1ccc(C(NC(=O)C2C3C=CC(C3)C2C(=O)O)c2ccccc2)cc1` (stereo not shown), the “hERG current change (%, negative = inhibition) at 1uM” value was 3.59%.
With `N#Cc1cnc(SCC(=O)N2CCCCC2)nc1N`, the “hERG current change (%, negative = inhibition) at 1uM” value turned out to be 15.2%.
For `CC(C(=O)Nc1ccccc1-c1ccccc1)N1CCOCC1` (stereo not shown), the “hERG current change (%, negative = inhibition) at 1uM” value came to 12.7%.
As for `COc1ccccc1Nc1nc(N2CCOCC2)nc(N2CCOCC2)n1`, the “hERG current change (%, negative = inhibition) at 1uM” value is reported as 10.5%.
Turning to `COc1ccc(C(=O)Nc2ccccc2C(=O)N/N=C/c2ccco2)cc1`, the “hERG current change (%, negative = inhibition) at 1uM” value is on record as -15.1%.
Regarding `CN(c1ccccc1)c1ccc(/C=C(\CCC(=O)O)c2nc3ccccc3s2)cc1[N+](=O)[O-]`, the “hERG current change (%, negative = inhibition) at 1uM” value was determined as 39.5%.
For the compound `Cc1ccc(-n2nc3c(c2NC(=O)c2ccc4c(c2)OCO4)CS(=O)C3)c(C)c1` (stereo not shown), the “hERG current change (%, negative = inhibition) at 1uM” value was 3.77%.
For `COc1ccc(C2C(C(C)=O)=C(O)C(=O)N2CCCn2ccnc2)cc1` (stereo not shown) the value was 13%.
With `CCOC(=O)C1=C(COC(=O)c2cc(OC)c(OC)cc2[N+](=O)[O-])NC(=O)NC1C` (stereo not shown), the “hERG current change (%, negative = inhibition) at 1uM” value is 12.4%.
For `Cn1c(SCc2ccccc2)nc2c1c(=O)[nH]c(=O)n2C` the value was 12%; for `COC(=O)c1ccc(C(=O)OC)c(NC(=O)CSCC(=O)O)c1`, 14.2%.
For `O=C(CCN1CCCO1)N1CCCC(N2CCN(c3cccc(C(F)(F)F)c3)CC2)C1` (stereo not shown), the “hERG current change (%, negative = inhibition) at 1uM” value is -2.98%.
As for `O=C1c2ccccc2C(Nc2ccc3c(c2)OCCO3)N1Cc1ccccc1` (stereo not shown), the figure is 1.31%; as for `C=CCNC(=O)C1CC(c2cccc(OC)c2)=NO1` (stereo not shown), 6.1%.
On to `Cc1nc2c(cc1NC(=O)C(C)(C)C)nc(C)n2Cc1ccccc1`, for which the “hERG current change (%, negative = inhibition) at 1uM” value turned out to be 13.2%.
For `COc1cc2[nH]c(C(=O)NCC3CCCO3)cc2c(OC)c1OC` (stereo not shown) the value was 18.3%.
Consider `Cl.OCCN(Cc1ccccc1)CC(O)COc1ccc2c(c1)OCO2` (stereo not shown), for which the “hERG current change (%, negative = inhibition) at 1uM” value was determined as 8.49%.
Consider `COc1ccc(C(=O)NCc2cn3ccccc3n2)cc1`, for which the “hERG current change (%, negative = inhibition) at 1uM” value turned out to be 12.9%.
Turning to `O=[N+]([O-])c1cccc(NP(=O)(Oc2ccccc2)Oc2ccccc2)c1`, the “hERG current change (%, negative = inhibition) at 1uM” value is recorded as -2.03%.
As for `O=C1NC(=Nc2ccccc2Cl)SC1(CO)CO`, the figure is 10.2%.
Take `COc1ccc(CNC(=O)c2cc(=O)c3ccccc3o2)cc1`: the “hERG current change (%, negative = inhibition) at 1uM” value was determined as 12.4%.
On to `COCc1ccc(C(=O)N2CCCC(C(=O)c3cc(F)ccc3F)C2)s1` (stereo not shown), for which the “hERG current change (%, negative = inhibition) at 1uM” value is 7.23%.
As for `Cc1ccc(S(=O)(=O)Nc2ccc(-c3cn4ccc(C)cc4n3)cc2)cc1`, the figure is 8.97%; as for `CC1CCN(CCn2c(=S)[nH]c3cc4c(cc3c2=O)OCO4)CC1`, 0.738%; as for `COCCN(Cc1ccccc1)P(=O)(O)c1ccccc1OCC(=O)O`, 9.21%.
Consider `COC(=O)/C(C#N)=C/c1c(Oc2cccc(C)c2)nc2ccccn2c1=O`, for which the “hERG current change (%, negative = inhibition) at 1uM” value amounted to 4.32%.
In the case of `CCC(NC(=O)c1cncc(Br)c1)c1ccccc1` (stereo not shown), the “hERG current change (%, negative = inhibition) at 1uM” value is listed as 12.2%.
Regarding `COc1ccc(/C=C/C(=O)NCCC(=O)N2CCCN(C)CC2)cc1`, the “hERG current change (%, negative = inhibition) at 1uM” value turned out to be 1.16%.
Take `COc1cc(C(=O)N2CCCCC2)ccc1OCC(=O)Nc1ccc(F)cc1`: the “hERG current change (%, negative = inhibition) at 1uM” value is 9.45%.
Take `O=C(NCc1nnc2c(C(F)(F)F)cc(Cl)cn12)c1ccc2c(c1)OCO2`: the “hERG current change (%, negative = inhibition) at 1uM” value is 17.4%.
Turning to `CC(C)OCCCNC(=O)c1ccc(NS(C)(=O)=O)cc1`, the “hERG current change (%, negative = inhibition) at 1uM” value is 10.1%.
As for `O=C(NCc1ccccc1Cl)C1CCCO1` (stereo not shown), the “hERG current change (%, negative = inhibition) at 1uM” value is listed as 7.94%.
Consider `Cc1ccc(NC(=O)CNC(=O)N2CC(=O)Nc3ccccc32)cc1F`, for which the “hERG current change (%, negative = inhibition) at 1uM” value is on record as 14.3%.
Consider `CCO/C=C/C(O)(CNC(=O)c1ccc(C(C)(C)C)cc1)C(F)(F)F` (stereo not shown), for which the “hERG current change (%, negative = inhibition) at 1uM” value worked out at 6.36%.
`Cc1cc(C)cc(OCCN2CCOCC2)c1`: the “hERG current change (%, negative = inhibition) at 1uM” value was found to be 15.9%.
Regarding `Cc1cc(NC(=O)COC(=O)C2CCN(C(=O)c3ccc(Cl)cc3)CC2)no1`, the “hERG current change (%, negative = inhibition) at 1uM” value was determined as 4.08%.
On to `COc1ccc(NC(=O)CN(C)S(=O)(=O)c2ccc3c(c2)CCC(=O)N3)c(OC)c1`, for which the “hERG current change (%, negative = inhibition) at 1uM” value is recorded as -8.53%.
For `Cc1ccc(C)c(N(C)S(=O)(=O)c2cccc3nsnc23)c1`, the “hERG current change (%, negative = inhibition) at 1uM” value turned out to be 13.5%.
In the case of `CCC(C)NC(=O)c1ccc(CSc2nc3ccncc3n2Cc2ccc(F)cc2)cc1` (stereo not shown), the “hERG current change (%, negative = inhibition) at 1uM” value was -1.06%.
Turning to `COc1ccccc1/C=[N+](\[O-])C1SC(=S)N(C)C1(C)C` (stereo not shown), the “hERG current change (%, negative = inhibition) at 1uM” value is on record as 13.5%.
For the compound `O=C(O)/C(=C\c1cccc(F)c1)c1ccc(S(=O)(=O)N2CCCCC2)s1`, the “hERG current change (%, negative = inhibition) at 1uM” value was 13.3%.
With `COc1cccc(C(=O)NNC(=O)Cc2ccc(Cl)cc2)c1`, the “hERG current change (%, negative = inhibition) at 1uM” value stood at 15.5%.
Turning to `O=C1N/C(=C/c2ccc(N3CCOCC3)cc2)C(=O)N1Cc1ccc(F)cc1`, the “hERG current change (%, negative = inhibition) at 1uM” value was 17.1%.
For `CCOC(=O)N1CCN(C(=O)CS(=O)(=O)Cc2nc(-c3ccccc3C)oc2C)CC1`, the “hERG current change (%, negative = inhibition) at 1uM” value is recorded as -25.2%.
As for `COc1ccc(OC)c(NC(=O)CN(C)CC(=O)Nc2ccccc2Cl)c1`, the “hERG current change (%, negative = inhibition) at 1uM” value amounted to 0.169%.
On to `Cc1ccc2c(c1)C1CN(C)CCC1N2C(=O)COc1ccc(N(C)S(=O)(=O)c2cccs2)cc1` (stereo not shown), for which the “hERG current change (%, negative = inhibition) at 1uM” value was -5.56%.
Turning to `Fc1ccc(C2=Nn3c(Cc4ccccc4F)nnc3SC2)cc1`, the “hERG current change (%, negative = inhibition) at 1uM” value is reported as 19.7%.
`COc1ccc(-c2cccc(C(=O)N3CCOCC3)c2)cc1`: the “hERG current change (%, negative = inhibition) at 1uM” value is 16.6%.
As for `Cn1c(-c2ccc(F)cc2)cnc1SCC(=O)NCc1ccco1`, the figure is 3.7%; as for `CC1CCc2nc3ccccc3c(C(=O)OCC(=O)N3CCc4ccccc43)c2C1` (stereo not shown), 15.9%; as for `CC1CCN(S(=O)(=O)c2cc(C(=O)NC3(C)CCS(=O)(=O)C3)ccc2Br)CC1` (stereo not shown), -2.52%.
For `O=C1NC(=Nc2ccccc2)SC1Cc1cccc(Cl)c1Cl` (stereo not shown) the value was 7.27%; for `COc1cc(/C=N/NC(=O)c2cc(-c3ccccc3)nc3ccccc23)ccc1O`, 8.39%.
In the case of `COc1ccc(-c2nc(-c3cccnc3)no2)cc1`, the “hERG current change (%, negative = inhibition) at 1uM” value is on record as 9.06%.
For `COC(=O)c1sccc1NN1C(=O)c2ccccc2C1=O`, the “hERG current change (%, negative = inhibition) at 1uM” value was determined as 13.1%.
`O=[N+]([O-])c1cccc(-c2n[nH]c(=S)n2Cc2ccccc2)c1`: the “hERG current change (%, negative = inhibition) at 1uM” value turned out to be 4.74%.
For `CCOC(=O)N1CCC(N(CCN(C)C)C(=S)Nc2ccc(Oc3ccccc3)cc2)CC1` the value was 13.3%.
In the case of `COc1ccccc1C1OC(c2cccc([N+](=O)[O-])c2)=NN1C(C)=O` (stereo not shown), the “hERG current change (%, negative = inhibition) at 1uM” value is -8.51%.
On to `Cc1onc(-c2ccccc2)c1CNC(=O)Nc1ccc(C(F)(F)F)cc1`, for which the “hERG current change (%, negative = inhibition) at 1uM” value is on record as 13.8%.
For `Cc1[nH]c(=O)[nH]c(=O)c1S(=O)(=O)N1CCCC(C(=O)N2CCN(c3cccc(C(F)(F)F)c3)CC2)C1` (stereo not shown), the “hERG current change (%, negative = inhibition) at 1uM” value turned out to be 15.4%.
As to `COc1cccc(CN2CCCC(C(=O)c3ccc4c(c3)OCO4)C2)c1OC` (stereo not shown), the “hERG current change (%, negative = inhibition) at 1uM” value was -25.3%.
With `COc1cc(/C=C2/C(=O)NN(c3cccc(C)c3)C2=O)ccc1OC(=O)c1ccco1`, the “hERG current change (%, negative = inhibition) at 1uM” value was determined as 11.3%.
For `O=C(N/N=C/c1c(Cl)cccc1Cl)C(=O)NC1CC1`, the “hERG current change (%, negative = inhibition) at 1uM” value is 16.3%.
As for `Cc1c(Cl)c([N+](=O)[O-])nn1CC(=O)NC12CC3CC(CC(C3)C1)C2`, the “hERG current change (%, negative = inhibition) at 1uM” value is 7.91%.
With `COc1ccc(C2=NOC(CN3C(=O)c4ccccc4S3(=O)=O)C2)cc1` (stereo not shown), the “hERG current change (%, negative = inhibition) at 1uM” value was -6.81%.
For `CCOc1ccc2oc(C(=O)NC3CC(C)(C)NC(C)(C)C3)c(C)c2c1`, the “hERG current change (%, negative = inhibition) at 1uM” value came to 13.8%.
Turning to `CCN(CC)S(=O)(=O)c1cccc(C(=O)Nc2cccnc2)c1`, the “hERG current change (%, negative = inhibition) at 1uM” value is given as 2.33%.
On to `Cc1ccc(NC(=O)CN2C(=O)C(=O)N(C3CCCC3)C2=O)cc1Cl`, for which the “hERG current change (%, negative = inhibition) at 1uM” value is -2.48%.
For `CCOC(=O)Cc1ccc2sc(-c3ccccc3)nc2c1` the value was 7.91%; for `O=C(NNc1nc2cc3c(cc2s1)OCCO3)c1ccc(F)cc1`, 3.54%; for `NC(=O)CCS(=O)(=O)c1ccc(Cl)cc1`, -8.41%.
Turning to `CCC(Cc1ccccc1)n1c(=S)[nH]c2ccccc2c1=O` (stereo not shown), the “hERG current change (%, negative = inhibition) at 1uM” value was 0.335%.
As for `COc1cc(OC)cc(C(=O)NCCNC(=O)c2ccccc2)c1`, the figure is 6.93%; as for `CCOc1nc(NCCN2CCOCC2)nc(NC(C)C)n1`, 0.245%.
As for `O=C(Nc1ccc(NC(=O)C2CCCN2C(=O)OCc2ccccc2)cc1)c1ccco1` (stereo not shown), the figure is 10.6%; as for `O=C(C1CCN(S(=O)(=O)c2cnc[nH]2)CC1)N1CCN(Cc2ccc3c(c2)OCO3)CC1`, 3.08%.
`Cc1c2c([n+]3n1CCC3)CC(C)(C)CC2=O.[Br-]`: the “hERG current change (%, negative = inhibition) at 1uM” value was found to be 22.7%.
